# Source: the supplement of paper PMC12217912
# Some of the results follow. The full chains were built here from the parent and the listed change. Inactive controls read about 0.05.
# B1: TEV protease; numbered along this chain (parent)
# chain: MGESLFKGPRDYNPISSSICHLTNESDGHTTSLYGIGFGPFIITNKHLFRRNNGTLVVQSLHGVFKVKDTTTLQQHLVDGRDMIIIRMPKDFPPFPQKLKFREPQREERICLVTTNFQTKSMSSMVSDTSCTFPSGDGIFWKHWIQTKDGQCGSPLVSTRDGFIVGIHSASNFTNTNNYFTSVPKNFMELLTNQEAQQWVSGWRLNADSVLWGGHKVFMVKPEEPFQPVKEATQL
# Variants of: B1
# Test: raw area under fraction-flipped curve 0-4 h after induction (AUC4h, not background-subtracted), DNA-recorder readout of cleavage of the substrate (dimensionless); higher = more cleavage of the substrate by the protease variant
# Settings: temperature: 34 °C; time window: 0-4 h after rhamnose induction
# Method: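 In vivo DNA recorder in E. coli TOP10(DE3) ΔrhaA at 34 °C. Each TEVp single-site mutant (parent TEVp 0) is paired with a single-site variant of the 7-mer TEVs (canonical ENLYFQ|S). The substrate sits between flexible linkers in a Bxb1-sfGFP-TEVs-SsrA fusion, so cleavage stabilises Bxb1 and speeds flipping of a recombination array, read by NGS. The value is the raw area under the fraction-flipped curve over 0-4 h after rhamnose induction (AUC4h), with ≥20 reads per time point. It is not background-subtracted; inactive controls average about 0.047.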
# 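Also: Bxb1 expression induced with 0.2% (w/v) L-rhamnose at OD600 near 0.5, cultures sampled hourly, flipped fraction per protease–substrate barcode pair counted by paired-end Illumina sequencing.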
variant,measurement,value
I36Y,area with substrate ENLYFAS,0.0288
same,area with substrate ENLYFES,0.0506
same,area with substrate ENLYFFS,0.0548
same,area with substrate ENLYFGS,0.0368
same,area with substrate ENLYFHS,0.0565
same,area with substrate ENLYFIS,0.0438
same,area with substrate ENLYFKS,0.0515
same,area with substrate ENLYFLS,0.0501
same,area with substrate ENLYFMS,0.0562
same,area with substrate ENLYFNS,0.0599
same,area with substrate ENLYFPS,0.0378
same,area with substrate ENLYFSS,0.0438
same,area with substrate ENLYFTS,0.0523
same,area with substrate ENLYFWS,0.0484
same,area with substrate ENLYFYS,0.0478
G37I,area with substrate ENLYFAS,0.0693
same,area with substrate ENLYFCS,0.0487
same,area with substrate ENLYFDS,0.0543
same,area with substrate ENLYFES,0.0541
same,area with substrate ENLYFFS,0.0539
same,area with substrate ENLYFGS,0.041
same,area with substrate ENLYFHS,0.0599
same,area with substrate ENLYFIS,0.052
same,area with substrate ENLYFMS,0.0525
same,area with substrate ENLYFNS,0.0569
same,area with substrate ENLYFPS,0.0638
same,area with substrate ENLYFRS,0.0663
same,area with substrate ENLYFSS,0.0543
same,area with substrate ENLYFTS,0.0556
same,area with substrate ENLYFVS,0.0631
same,area with substrate ENLYFWS,0.0507
G37T,area with substrate ENLYFAS,0.0464
same,area with substrate ENLYFDS,0.0598
same,area with substrate ENLYFES,0.0615
same,area with substrate ENLYFHS,0.0418
same,area with substrate ENLYFIS,0.0479
same,area with substrate ENLYFKS,0.0493
same,area with substrate ENLYFMS,0.0597
same,area with substrate ENLYFNS,0.046
same,area with substrate ENLYFPS,0.0645
same,area with substrate ENLYFRS,0.0557
same,area with substrate ENLYFTS,0.0454
same,area with substrate ENLYFWS,0.0346
same,area with substrate ENLYFYS,0.056
F38C,area with substrate ENLYFAS,0.0608
same,area with substrate ENLYFDS,0.0478
same,area with substrate ENLYFES,0.0628
same,area with substrate ENLYFFS,0.0747
same,area with substrate ENLYFGS,0.0465
same,area with substrate ENLYFHS,0.0497
same,area with substrate ENLYFIS,0.0498
same,area with substrate ENLYFKS,0.037
same,area with substrate ENLYFMS,0.0657
same,area with substrate ENLYFNS,0.0641
same,area with substrate ENLYFPS,0.0493
same,area with substrate ENLYFSS,0.0647
same,area with substrate ENLYFTS,0.049
same,area with substrate ENLYFVS,0.0558
same,area with substrate ENLYFWS,0.0582
same,area with substrate ENLYFYS,0.0507
F38I,area with substrate ENLYFAS,0.0624
same,area with substrate ENLYFCS,0.0436
same,area with substrate ENLYFES,0.0581
same,area with substrate ENLYFFS,0.0696
same,area with substrate ENLYFHS,0.0564
same,area with substrate ENLYFIS,0.056
same,area with substrate ENLYFLS,0.0507
same,area with substrate ENLYFMS,0.0529
same,area with substrate ENLYFPS,0.0581
same,area with substrate ENLYFRS,0.0525
same,area with substrate ENLYFTS,0.0513
same,area with substrate ENLYFVS,0.0707
F38W,area with substrate ENLYFAS,0.0594
same,area with substrate ENLYFCS,0.0757
same,area with substrate ENLYFES,0.0669
same,area with substrate ENLYFFS,0.0725
same,area with substrate ENLYFHS,0.0732
same,area with substrate ENLYFIS,0.0557
same,area with substrate ENLYFKS,0.0573
same,area with substrate ENLYFLS,0.0516
same,area with substrate ENLYFMS,0.0702
same,area with substrate ENLYFNS,0.068
same,area with substrate ENLYFPS,0.0596
same,area with substrate ENLYFRS,0.069
same,area with substrate ENLYFSS,0.056
same,area with substrate ENLYFTS,0.0564
same,area with substrate ENLYFWS,0.063
F38Y,area with substrate ENLYFAS,0.0356
same,area with substrate ENLYFCS,0.0545
same,area with substrate ENLYFDS,0.0578
same,area with substrate ENLYFES,0.066
same,area with substrate ENLYFFS,0.0744
same,area with substrate ENLYFHS,0.0794
same,area with substrate ENLYFIS,0.0544
same,area with substrate ENLYFKS,0.0535
same,area with substrate ENLYFLS,0.0592
same,area with substrate ENLYFMS,0.0563
same,area with substrate ENLYFNS,0.0618
same,area with substrate ENLYFPS,0.0632
same,area with substrate ENLYFSS,0.0564
same,area with substrate ENLYFWS,0.0373
same,area with substrate ENLYFYS,0.0497
G39E,area with substrate ENLYFAS,0.0467
same,area with substrate ENLYFCS,0.0434
same,area with substrate ENLYFDS,0.0616
same,area with substrate ENLYFES,0.047
same,area with substrate ENLYFFS,0.0469
same,area with substrate ENLYFHS,0.0296
same,area with substrate ENLYFIS,0.0403
same,area with substrate ENLYFKS,0.0423
same,area with substrate ENLYFMS,0.047
same,area with substrate ENLYFNS,0.0727
same,area with substrate ENLYFPS,0.0472
same,area with substrate ENLYFRS,0.0299
same,area with substrate ENLYFSS,0.0431
same,area with substrate ENLYFTS,0.0427
same,area with substrate ENLYFVS,0.0593
same,area with substrate ENLYFWS,0.044
same,area with substrate ENLYFYS,0.0358
G39I,area with substrate ENLYFAS,0.0409
same,area with substrate ENLYFCS,0.0464
same,area with substrate ENLYFES,0.0509
same,area with substrate ENLYFFS,0.0521
same,area with substrate ENLYFGS,0.0297
same,area with substrate ENLYFHS,0.0297
same,area with substrate ENLYFIS,0.0431
same,area with substrate ENLYFLS,0.0668
same,area with substrate ENLYFMS,0.0464
same,area with substrate ENLYFNS,0.0476
same,area with substrate ENLYFPS,0.0401
same,area with substrate ENLYFRS,0.0422
same,area with substrate ENLYFTS,0.0502
same,area with substrate ENLYFWS,0.0381
G39M,area with substrate ENLYFAS,0.0353
same,area with substrate ENLYFCS,0.0366
same,area with substrate ENLYFDS,0.0381
same,area with substrate ENLYFFS,0.044
same,area with substrate ENLYFGS,0.039
same,area with substrate ENLYFHS,0.0406
same,area with substrate ENLYFIS,0.0406
same,area with substrate ENLYFKS,0.051
same,area with substrate ENLYFLS,0.0404
same,area with substrate ENLYFMS,0.0443
same,area with substrate ENLYFNS,0.0329
same,area with substrate ENLYFPS,0.0354
same,area with substrate ENLYFRS,0.0448
same,area with substrate ENLYFSS,0.0407
same,area with substrate ENLYFTS,0.0299
same,area with substrate ENLYFVS,0.0347
same,area with substrate ENLYFWS,0.0341
same,area with substrate ENLYFYS,0.04
G39R,area with substrate ENLYFAS,0.0514
same,area with substrate ENLYFCS,0.0376
same,area with substrate ENLYFES,0.057
same,area with substrate ENLYFFS,0.0479
same,area with substrate ENLYFHS,0.0549
same,area with substrate ENLYFIS,0.047
same,area with substrate ENLYFKS,0.0484
same,area with substrate ENLYFMS,0.0429
same,area with substrate ENLYFNS,0.0411
same,area with substrate ENLYFPS,0.0242
same,area with substrate ENLYFRS,0.0549
same,area with substrate ENLYFSS,0.0467
same,area with substrate ENLYFTS,0.0531
same,area with substrate ENLYFWS,0.0529
F41I,area with substrate ENLYFAS,0.0539
same,area with substrate ENLYFCS,0.0539
same,area with substrate ENLYFDS,0.0358
same,area with substrate ENLYFES,0.0667
same,area with substrate ENLYFFS,0.0743
same,area with substrate ENLYFGS,0.0566
same,area with substrate ENLYFHS,0.0597
same,area with substrate ENLYFIS,0.061
same,area with substrate ENLYFKS,0.0625
same,area with substrate ENLYFMS,0.0542
same,area with substrate ENLYFPS,0.0572
same,area with substrate ENLYFRS,0.0655
same,area with substrate ENLYFSS,0.0656
same,area with substrate ENLYFTS,0.0602
same,area with substrate ENLYFVS,0.0402
same,area with substrate ENLYFWS,0.0487
same,area with substrate ENLYFYS,0.0509
